According to the supplement of paper PMC10037445:
Several values for one entry are separate records, joined by “and”; a condition that tells them apart may be missing. Equal entries are not always repeated. ± gives the standard deviation of the averaged measurements. In all, about 2,900 compounds were measured (“NF-kB SEAP reporter activity, fold change vs agonist alone”: median about 0.99, highest 2% from about 2.6 on). This is one part of the list.

How the values were obtained:
[1] = test system: RAW-Dual; experiment: NF-kB SEAP reporter activity, fold change vs agonist alone; higher = enhanced NF-kB activity
Procedure, shortened: (§1)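 RAW-Dual macrophages (50,000 cells/well in DMEM, 384-well plates) received 50 nL of library stock by pin tool, then a PRR agonist 1 h later, and were kept at 37 °C, 5% CO2. After 20 hours, supernatant was read for IRF by QuantiLuc luminescence and for NF-κB by QuantiBlue absorbance at 620 nm. Reporter activity is fold change over agonist-alone wells. Cytotoxic wells had IncuCyte confluency below 70% of agonist controls in both mask sets.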

[2] = test system: RAW-Dual; experiment: NF-kB SEAP reporter activity, fold change vs agonist alone; cytotoxicity flag (confluency mask): not cytotoxic; higher = enhanced NF-kB activity
Procedure, shortened: as §1

[3] = test system: RAW-Dual; experiment: NF-kB SEAP reporter activity, fold change vs agonist alone; cytotoxicity flag (confluency mask): cytotoxic (confluency <70% of control); higher = enhanced NF-kB activity
Procedure, shortened: as §1

[4] = agonist: ODN 1826 (TLR9) 0.5 ug/mL
[5] = agonist: Pam2CSK4 (TLR2/6) 0.1 ug/mL
[6] = agonist: Pam3CSK4 (TLR2/1) 0.1 ug/mL
[7] = library stock concentration (final ~1000-fold dilution): 10 mM, cytotoxicity flag (confluency mask): cytotoxic (confluency <70% of control), agonist: Imiquimod (TLR7) […]
[8] = library stock concentration (final ~1000-fold dilution): 10 mM, cytotoxicity flag (confluency mask): cytotoxic (confluency <70% of control), agonist: MPLA (TLR4) […]
[9] = library stock concentration (final ~1000-fold dilution): 10 mM, cytotoxicity flag (confluency mask): not cytotoxic, agonist: Imiquimod (TLR7) […]
[10] = library stock concentration (final ~1000-fold dilution): 10 mM, cytotoxicity flag (confluency mask): not cytotoxic, agonist: MPLA (TLR4) […]

## Br.Br.Br.Br.Br.Br.c1ccc(CNCc2ccc(CN3CCCNCCNCCCNCC3)cc2)nc1
[1]; library stock concentration (final ~1000-fold dilution): 10 mM water, cytotoxicity flag (confluency mask): not cytotoxic, agonist: Imiquimod (TLR7) […]
  NF-kB SEAP reporter activity: 0.848
[1]; library stock concentration (final ~1000-fold dilution): 10 mM water, cytotoxicity flag (confluency mask): not cytotoxic, agonist: MPLA (TLR4) […]
  NF-kB SEAP reporter activity: 0.806

## Br.Br.Br.Br.Br.Br.c1ccc(CNCc2ccc(CN3CCCNCCNCCCNCC3)cc2)nc1 (library stock concentration (final ~1000-fold dilution): 10 mM water)
[2]; agonist: LPS (TLR4) 0.1 ug/mL
  NF-kB SEAP reporter activity: 1.02
[2]; [4]
  NF-kB SEAP reporter activity: 0.926
[2]; [5]
  NF-kB SEAP reporter activity: 1.05
[2]; [6]
  NF-kB SEAP reporter activity: 1.15

## Cc1ccc(NCCCc2ccccc2)c(N)c1 (library stock concentration (final ~1000-fold dilution): 10 mM)
[2]; agonist: LPS (TLR4) 0.1 ug/mL
  NF-kB SEAP reporter activity: 0.469
[2]; [4]
  NF-kB SEAP reporter activity: 0.541
[2]; [5]
  NF-kB SEAP reporter activity: 0.308
[2]; [6]
  NF-kB SEAP reporter activity: 0.248
[3]; agonist: LPS (TLR4) 0.1 ug/mL
  NF-kB SEAP reporter activity: 0.665 ± 0.2
[3]; [4]
  NF-kB SEAP reporter activity: 0.533 ± 0.15
[3]; [5]
  NF-kB SEAP reporter activity: 0.399 ± 0.13
[3]; [6]
  NF-kB SEAP reporter activity: 0.432 ± 0.1

## Cc1ccc(NCCCc2ccccc2)c(N)c1
[1]; [7]
  NF-kB SEAP reporter activity: 1.08 ± 0.13
[1]; [8]
  NF-kB SEAP reporter activity: 0.908 ± 0.33
[1]; [9]
  NF-kB SEAP reporter activity: 1.02
[1]; [10]
  NF-kB SEAP reporter activity: 0.694

## C#Cc1cccc(Nc2ncnc3cc4c(cc23)OCCOCCOCCO4)c1 (library stock concentration (final ~1000-fold dilution): 10 mM)
[2]; agonist: LPS (TLR4) 0.1 ug/mL
  NF-kB SEAP reporter activity: 1.8
[2]; [4]
  NF-kB SEAP reporter activity: 0.972
[2]; [5]
  NF-kB SEAP reporter activity: 1.16
[2]; [6]
  NF-kB SEAP reporter activity: 1.44

## C#Cc1cccc(Nc2ncnc3cc4c(cc23)OCCOCCOCCO4)c1
[1]; [9]
  NF-kB SEAP reporter activity: 1.06
[1]; [10]
  NF-kB SEAP reporter activity: 1.53

## C=CC(=O)Nc1cc(Nc2nccc(-c3cn(C)c4ccccc34)n2)c(OC)cc1N(C)CCN(C)C
[1]; [7]
  NF-kB SEAP reporter activity: 0.154
[1]; [8]
  NF-kB SEAP reporter activity: 0.23

## C=CC(=O)Nc1cc(Nc2nccc(-c3cn(C)c4ccccc34)n2)c(OC)cc1N(C)CCN(C)C (library stock concentration (final ~1000-fold dilution): 10 mM)
[3]; agonist: LPS (TLR4) 0.1 ug/mL
  NF-kB SEAP reporter activity: 0.691
[3]; [4]
  NF-kB SEAP reporter activity: 0.19
[3]; [5]
  NF-kB SEAP reporter activity: 0.387
[3]; [6]
  NF-kB SEAP reporter activity: 0.266

## CC1=C(C(=O)Nc2ccc3[nH]ncc3c2)C(c2ccc(F)cc2)NC(=O)N1 (configuration not stated) (library stock concentration (final ~1000-fold dilution): 10 mM)
[2]; agonist: LPS (TLR4) 0.1 ug/mL
  NF-kB SEAP reporter activity: 0.785
[2]; [4]
  NF-kB SEAP reporter activity: 1.29
[2]; [5]
  NF-kB SEAP reporter activity: 1.12
[2]; [6]
  NF-kB SEAP reporter activity: 1.56

## CC1=C(C(=O)Nc2ccc3[nH]ncc3c2)C(c2ccc(F)cc2)NC(=O)N1 (configuration not stated)
[1]; [9]
  NF-kB SEAP reporter activity: 1.12
[1]; [10]
  NF-kB SEAP reporter activity: 0.995

## COc1cc2c(c(OC)c1OC)-c1c(cc3c(c1OC)OCO3)CC(C)C(C)C2 (configuration not stated) (library stock concentration (final ~1000-fold dilution): 10 mM)
[2]; agonist: LPS (TLR4) 0.1 ug/mL
  NF-kB SEAP reporter activity: 1.31 and 0.712
[2]; [4]
  NF-kB SEAP reporter activity: 0.577 and 0.583
[2]; [5]
  NF-kB SEAP reporter activity: 1 and 0.433
[2]; [6]
  NF-kB SEAP reporter activity: 0.682 and 0.522

## CCOC(=O)c1cnc2ccc(-c3cncc(NS(=O)(=O)c4ccccc4)c3)cn12
[1]; [7]
  NF-kB SEAP reporter activity: 1.31
[1]; [8]
  NF-kB SEAP reporter activity: 2.94

## CCOC(=O)c1cnc2ccc(-c3cncc(NS(=O)(=O)c4ccccc4)c3)cn12 (library stock concentration (final ~1000-fold dilution): 10 mM)
[3]; agonist: LPS (TLR4) 0.1 ug/mL
  NF-kB SEAP reporter activity: 7.43
[3]; [4]
  NF-kB SEAP reporter activity: 2.4
[3]; [5]
  NF-kB SEAP reporter activity: 1.68
[3]; [6]
  NF-kB SEAP reporter activity: 3.96

## C#CCC(c1nc2cc(Cl)ccc2c(=O)n1Nc1ccccc1)N(CCCN)C(=O)c1cccc(Cl)c1F (configuration not stated) (library stock concentration (final ~1000-fold dilution): 10 mM)
[3]; agonist: LPS (TLR4) 0.1 ug/mL
  NF-kB SEAP reporter activity: 0.212
[3]; [4]
  NF-kB SEAP reporter activity: 0.181
[3]; [5]
  NF-kB SEAP reporter activity: 0.0665
[3]; [6]
  NF-kB SEAP reporter activity: 0.135

## C#CCC(c1nc2cc(Cl)ccc2c(=O)n1Nc1ccccc1)N(CCCN)C(=O)c1cccc(Cl)c1F (configuration not stated)
[1]; [7]
  NF-kB SEAP reporter activity: 0.144
[1]; [8]
  NF-kB SEAP reporter activity: 0.222

## COc1cc(C(=O)N2CCC(N3CCN(C)CC3)CC2)ccc1Nc1ncc2c(n1)N(C)c1ccccc1C(=O)N2C (library stock concentration (final ~1000-fold dilution): 10 mM)
[2]; agonist: LPS (TLR4) 0.1 ug/mL
  NF-kB SEAP reporter activity: 3.59
[2]; [4]
  NF-kB SEAP reporter activity: 0.264
[2]; [5]
  NF-kB SEAP reporter activity: 1.02
[2]; [6]
  NF-kB SEAP reporter activity: 2.01

## COc1cc(C(=O)N2CCC(N3CCN(C)CC3)CC2)ccc1Nc1ncc2c(n1)N(C)c1ccccc1C(=O)N2C
[1]; [9]
  NF-kB SEAP reporter activity: 1.48
[1]; [10]
  NF-kB SEAP reporter activity: 2.66

## CC(C)(O)c1cc(Nc2cc(Oc3cn(C4CC4)nc3C3CCOCC3)ccn2)ccn1
[1]; [9]
  NF-kB SEAP reporter activity: 1.04
[1]; [10]
  NF-kB SEAP reporter activity: 1.42

## CC(C)(O)c1cc(Nc2cc(Oc3cn(C4CC4)nc3C3CCOCC3)ccn2)ccn1 (library stock concentration (final ~1000-fold dilution): 10 mM)
[2]; agonist: LPS (TLR4) 0.1 ug/mL
  NF-kB SEAP reporter activity: 1.63
[2]; [4]
  NF-kB SEAP reporter activity: 1
[2]; [5]
  NF-kB SEAP reporter activity: 1.34
[2]; [6]
  NF-kB SEAP reporter activity: 1.1

## Cc1c(C(=O)NN2CCCCC2)nn(-c2ccc(Cl)cc2Cl)c1-c1ccc(Cl)cc1
[1]; [9]
  NF-kB SEAP reporter activity: 0.595
[1]; [10]
  NF-kB SEAP reporter activity: 0.98

## Cc1c(C(=O)NN2CCCCC2)nn(-c2ccc(Cl)cc2Cl)c1-c1ccc(Cl)cc1 (library stock concentration (final ~1000-fold dilution): 10 mM)
[2]; agonist: LPS (TLR4) 0.1 ug/mL
  NF-kB SEAP reporter activity: 1.45
[2]; [4]
  NF-kB SEAP reporter activity: 0.437
[2]; [5]
  NF-kB SEAP reporter activity: 0.635
[2]; [6]
  NF-kB SEAP reporter activity: 0.605

## CC12CCC(O)CC1=CCC1C2CCC2(C)C(n3cnc4ccccc43)=CCC12 (configuration not stated) (library stock concentration (final ~1000-fold dilution): 10 mM)
[2]; agonist: LPS (TLR4) 0.1 ug/mL
  NF-kB SEAP reporter activity: 1.32
[2]; [4]
  NF-kB SEAP reporter activity: 0.887
[2]; [5]
  NF-kB SEAP reporter activity: 1.2
[2]; [6]
  NF-kB SEAP reporter activity: 1.22

## CC12CCC(O)CC1=CCC1C2CCC2(C)C(n3cnc4ccccc43)=CCC12 (configuration not stated)
[1]; [9]
  NF-kB SEAP reporter activity: 1.35
[1]; [10]
  NF-kB SEAP reporter activity: 0.974

## O=C(NCC1(c2nc(-c3ccccc3)cs2)CCOCC1)c1cccc(-c2noc(C(F)(F)F)n2)c1
[1]; [9]
  NF-kB SEAP reporter activity: 0.941
[1]; [10]
  NF-kB SEAP reporter activity: 0.882

## O=C(NCC1(c2nc(-c3ccccc3)cs2)CCOCC1)c1cccc(-c2noc(C(F)(F)F)n2)c1 (library stock concentration (final ~1000-fold dilution): 10 mM)
[2]; agonist: LPS (TLR4) 0.1 ug/mL
  NF-kB SEAP reporter activity: 0.714
[2]; [4]
  NF-kB SEAP reporter activity: 1.04
[2]; [5]
  NF-kB SEAP reporter activity: 0.727
[2]; [6]
  NF-kB SEAP reporter activity: 0.589
